Laboratory results reported in PubChem BioAssay AID652104 (National Center for Advancing Translational Sciences (NCATS), 2013).
Out of some 410,000 compounds screened, about 7,200 (1.8%) were called active. The shares of active, inactive and inconclusive entries below differ from those in the screen. Calls follow the shape of the dose curve; as a rule, active = well fitted activation curve with a large enough effect; inconclusive = small, poorly fitted or top-dose-only effect, or another doubt; inactive = no such curve, though single readings can be large or run the other way. No potency is given beside an inconclusive call; the fits are too rough.

Assay: qHTS of TDP-43 Inhibitors; also: nearly all actives have a fitted effect of over 50% in size; as to growth rescue (activation): % of control where 0% means no effect
Conditions: TDP-43 expressing yeast growth rescue, BacTiter-Glo, 24 h; growth rescue (activation): at 46.1 µM (top of the series) unless noted
Summary of the method: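 Cell-based yeast growth screen: TDP-43 expression induced in galactose, inoculum OD600=0.02 after raffinose pregrowth to mid-log. Read-out BacTiter-Glo luminescence at 24 hr, 30 deg C; inhibition of toxicity seen as signal increase.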
Potency is read from the fitted curve at half-maximal effect; tags tell the direction and shape of the fitted curve.

Row | SMILES | Potency | growth rescue (activation)
1 | CCCc1cc(C(=O)Nc2cc(C)on2)no1 | inconclusive [activator, partial curve] | –
2 | C=CCNc1ccc(C(=O)O)cc1 | active: 14.1 µM | –
3 | CCc1ccc(NC(=O)CSc2nc3ccccc3nc2Cc2ccccc2OC)cc1 | inactive | –
4 | CCOC(=O)C(=CNNc1ccccc1)C(=O)OCC | active: 12.6 µM | –
5 | Cc1ccc(/C=C/C(=O)OC(C)C(=O)Nc2ccc(Cl)cn2)o1 (centres undefined) | inconclusive [activator, partial curve, poor fit] | –
6 | O=C(O)c1ccc(NC(=S)NC(=O)c2cncc(Br)c2)cc1 | inconclusive [activator, full curve, poor fit] | –
7 | Cc1ccc(SCC(=O)NCCc2ccccc2)cc1 | inconclusive [activator, single point] | –
8 | COc1ccc(S(=O)(=O)N(CC(=O)N(C)Cc2ccccc2)c2ccc(Cl)cc2)cc1 | inactive | –
9 | CCOC(=O)c1c(/N=C/c2ccccc2O)sc2c1CCC2 | inconclusive [activator, partial curve] | –
10 | CC(=O)N1CCCC(C(=O)c2ccc3c4c(cccc24)CC3)C1 (centres undefined) | inconclusive [activator, partial curve, poor fit] | –
11 | O=C(Nc1nc2c(F)cc(F)cc2s1)c1ccco1 | inconclusive [activator, full curve] | –
12 | CCC1CN(C(=O)N2CCC(C(=O)NCCC3=CCCCC3)CC2)c2cc(C)ccc2O1 (centres undefined) | inconclusive [activator, single point] | –
13 | O=C(NCc1ccc(F)cc1)c1cc2ccccn2n1 | inconclusive [activator, partial curve] | –
14 | COc1ccc(-c2ccnc3nc(N4CCN(c5ccccc5)CC4)nn23)cc1 | active: 14.1 µM | –
15 | O=C(Nc1ccc(F)c(Cl)c1)c1cc(C2CCCCN2C(=O)c2ccc3c(c2)CCO3)on1 (centres undefined) | inconclusive [activator, partial curve] | –
16 | Cc1cccc(NC(=S)N/C(=N/S(=O)(=O)c2ccccc2)c2ccccc2)c1 | inactive | –
17 | Fc1ccc(CNc2ncnc3c2cnn3-c2ccccc2)cc1 | inconclusive [activator, full curve, poor fit] | –
18 | CCN(CC(=O)NCc1ccc(F)cc1)C(=O)Cc1c(F)cccc1Cl | inactive | –
19 | O=S(=O)(c1ccc(Cl)cc1)N1CCCc2ccccc21 | inconclusive [activator, partial curve, poor fit] | –
20 | COc1cc(C)c(NC(=O)c2cc(C3CC3)nc3c2cnn3C(C)C)cc1OC | inconclusive [activator, partial curve] | –
21 | CCOC(=O)c1ccc(NC(=O)c2c(NCc3sccc3C)sc3c2CCCCC3)cc1 | inactive | –
22 | COC(=O)c1sccc1NC(=O)Nc1cc(OC)ccc1OC | active: 17.8 µM | –
23 | CC1CCN(C(=O)CSc2ccc(-c3ccc(F)cc3)nn2)CC1 | inconclusive [activator, single point] | –

Row | SMILES | Potency | growth rescue (activation)
24 | Cc1ccc(S(=O)(=O)N(CC(=O)NC2CC2)c2ccc(C)c(Cl)c2)cc1 | inconclusive [activator, partial curve] | –
25 | COc1ccc(/C=C2/CCCc3ccccc3C2=O)cc1 | inconclusive [activator, single point] | –
26 | COC(=O)/C=C/c1cccc([C@H]2[C@@H]3C=CC[C@@H](C)[C@@H]3C(=O)N2Cc2ccccc2)c1 | inconclusive [activator, single point] | –
27 | CCOC(=O)c1nc(C)nc(Sc2n[nH]c(-c3ccc(C(C)(C)C)cc3)n2)c1C | inconclusive [activator, partial curve] | –
28 | Cn1cccc1/C=C1\SC(=Nc2ccccc2)NC1=O | inactive | –
29 | O=c1[nH]c2ccccc2nc1CCc1ccccc1 | inconclusive [activator, partial curve] | –
30 | CN1CCN(Cc2cc(=O)oc3ccc(Cl)cc23)CC1 | inactive | –
31 | COC(=O)c1ccc2nc(-c3ccc(Cl)cc3)c(Cc3ccccc3OC)n2c1 | inactive | –
32 | Cc1ccc(N=Cc2cc(Cc3ccccc3Cl)cc([N+](=O)[O-])c2O)c(O)c1 | inactive | –
33 | O=C(COc1ccc(C(=O)c2ccccc2)cc1)Nc1ncccc1O | inconclusive [activator, partial curve] | –
34 | O=C(NCCS(=O)(=O)N1CCN(c2ccccc2F)CC1)c1ccc(Br)o1 | inconclusive [activator, single point] | –
35 | O=C(COc1ccccc1)NC(=S)Nc1cccc2c(O)cccc12 | inconclusive [activator, single point] | –
36 | CC(=O)Nc1cc(-c2ccc(C(=O)N3CCOCC3)cc2)cn2c(-c3cccc(C(F)(F)F)c3)cnc12 | inconclusive [activator, full curve, poor fit] | –
37 | CC(C)(C)c1ccc(C2NC(=O)c3n[nH]c(-c4cccs4)c32)cc1 (centres undefined) | inconclusive [activator, full curve, poor fit] | –
38 | C(=N\n1cnnc1)/c1cccc(OCCOc2ccccc2)c1 | inconclusive [activator, partial curve] | –
39 | Cc1cc2ncc(-c3cccc(Cl)c3)cn2n1 | inconclusive [activator, full curve] | –
40 | Cc1ccc(Cl)cc1NC(=O)COCc1cc(-c2ccco2)on1 | inconclusive [activator, partial curve] | –
41 | COc1ccc(CNC(=O)C2(C)Cc3c(-c4ccc5c(c4)OCO5)ccnc3O2)cc1OC (centres undefined) | inactive | –
42 | O=C(Nc1ccc(Cl)c(Cl)c1)Nc1ccon1 | active: 35.5 µM | –
43 | C[C@@H]1CC=C[C@H]2[C@H]1C(=O)N(Cc1ccccc1)[C@H]2c1cccc([N+](=O)[O-])c1 | inconclusive [activator, partial curve] | –
44 | O=C(CSc1nc2cc(Cl)ccc2s1)N1CCN(C(=O)c2ccco2)CC1 | inconclusive [activator, partial curve] | –
45 | CC(=O)N1c2ccccc2C(=O)C1N1CCN(c2ccc(F)cc2)CC1 (centres undefined) | inconclusive [activator, single point] | –
46 | CC(=O)Oc1cccc(N2C(=O)C3C(C2=O)C2C=CC3C23CC3)c1 (centres undefined) | inconclusive [activator, partial curve, poor fit] | –

Row | SMILES | Potency | growth rescue (activation)
47 | CCCC(=O)Nc1nc(-c2ccccc2)ns1 | active: 15.8 µM | –
48 | Cc1ccc(C2CC(c3cccs3)=NN2C(=O)CSC2=NN3CCCC(=O)N=C3S2)cc1 (centres undefined) | inactive | –
49 | Cc1ccc(OCC(=O)Nc2ccc(F)cc2)c([N+](=O)[O-])n1 | – | inactive: 10.2% [at 9.22 µM]
50 | Cc1ccc(CNS(=O)(=O)c2ccc(Cl)s2)cc1 | active: 12.6 µM | –
51 | CCN(C(=O)COC(=O)c1cccnc1SC)C1CCCCC1 | inconclusive [activator, partial curve, poor fit] | –
52 | CCSc1ccc([C@@H]2[C@H]3C(=O)N(CC)C(=O)[C@H]3[C@]3(C(=O)OC)CCCCN23)cc1 | inactive | –
53 | O=C(O)Cn1nnc(-c2ccc(OCc3ccccc3)cc2)n1 | inconclusive [activator, single point] | –
54 | CN(Cc1ccccc1)C(=O)CCn1c(=O)oc2ccccc21 | inactive | –
55 | O=C1CC(c2nc(-c3cccc(Cl)c3)no2)CN1c1ccc2c(c1)OCCO2 (centres undefined) | inconclusive [activator, single point] | –
56 | CCc1ccc(-c2nn(Cc3ccccc3)cc2C(=O)NCC2CCCO2)cc1 (centres undefined) | inconclusive [activator, single point] | –
57 | CCCNC(=O)COC(=O)c1cccnc1Nc1ccccc1F | inconclusive [activator, single point] | –
58 | COc1ccc(-c2onc(C)c2C)cc1S(=O)(=O)NCc1ccc(Br)cc1 | inconclusive [activator, partial curve, poor fit] | –
59 | O=C(N/N=C/c1cc([N+](=O)[O-])ccc1O)c1ccncc1 | inconclusive [activator, partial curve] | –
60 | CCCCn1c(-c2cccc(Br)c2)nc2cc3[nH]c(=O)c(C(C)C)nc3cc21 | inconclusive [activator, full curve] | –
61 | Cc1ccc(C)c(S(=O)(=O)N2CCN(C(=O)CNC(=O)c3ccc4ccccc4c3)CC2)c1 | inconclusive [activator, single point] | –
62 | COc1ccc(C(=O)Nc2ccc(OCc3cc(=O)n4ccccc4n3)cc2)cc1 | inactive | –
63 | CC1CCCN(C(=O)c2cc(-c3ccco3)nc3ccccc23)C1 (centres undefined) | inconclusive [activator, single point] | –
64 | Cc1ccc(NC(=O)CN2C(=O)COc3ccc(S(=O)(=O)N4CCCCCC4)cc32)cc1C | inconclusive [activator, full curve] | –
65 | N=C1C(c2ccc(Br)cc2)=C(O)C2CCc3ccccc3N12 (centres undefined) | inconclusive [activator, single point] | –
66 | C/C(=C\C(=O)Nc1cscc1C)C(=O)O | inconclusive [activator, single point] | –
67 | S=C(Nc1ccccc1)Nc1nc2ccccc2n1CCOc1ccc(Cl)cc1 | inconclusive [activator, single point] | –
68 | CC(Oc1ccc(F)cc1)C(=O)Nc1cc(-c2ccc(F)c(F)c2)no1 (centres undefined) | inconclusive [activator, partial curve, poor fit] | –
69 | Cc1ccc(S(=O)(=O)NCC2CCC(C(=O)N(C)Cc3ccccc3)CC2)cc1 (centres undefined) | inconclusive [activator, partial curve] | –
